PubChem BioAssay (Tox21)
“And” between values parts separate entries of the source, which are not always exact repeats. Equal values may be shown once. This list was built around the results that the source calls inconclusive (neither active nor inactive); the mix of calls is not that of the screen. For part of these data: Potencies of inconclusive entries are doubtful fits and often do not repeat. Where a structure was tested more than once in an assay, its records may differ in their call. The source made the active and inactive calls. Unless noted, calls follow the shape of the dose curve; as a rule, active = well fitted curve in the direction sought with a large enough effect in the repeat runs; inconclusive = weak or mixed curves; inactive = no such curve, though single readings can be large; an effect the other way counts as inactive or inconclusive.

Tests used:
[1] = qHTS assay for identifying genotoxic compounds that show differential cytotoxicity against isogenic chicken DT40 cell lines with known DNA damage response pathways - wild type cell line (AID 743012); conditions: DT40 wild type chicken cells viability, CellTiter-Glo, 40 h; activity change, negative = cytotoxicity: at 68.4 µM (top of the series) unless noted; also: nearly all actives have a fitted effect of over 60% in size; also: potency is read from the fitted curve at half-maximal effect
Procedure, shortened: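 First, wild type DT40 cells were plated at 300 per well and equilibrated about 0.5 h at 37 C/5% CO2. Next, compounds in DMSO were added and exposure lasted 40 h. Finally, CellTiter-Glo was added for 30 min at room temperature and luminescence recorded.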

[2] = qHTS assay to identify small molecule antagonists of the thyroid receptor (TR) signaling pathway - cell viability counter screen (AID 743064); conditions: GH3.TRE-Luc viability, CellTiter-Fluor, 24 h; activity change, negative = cytotoxic: at 70.3 µM (top of the series) unless noted; also: nearly all actives have a fitted effect of over 50% in size; also: potency is read from the fitted curve at half-maximal effect
Procedure, shortened: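 GH3.TRE-Luc rat pituitary cells carrying a TRE-luciferase reporter were treated with compound plus 1 nM T3 (final) for 23.5 h at 37 °C. Viability was then read in the same wells by CellTiter-Fluor fluorescence after a further 30 min.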

[3] = qHTS assay to identify small molecule antagonists of the thyroid receptor (TR) signaling pathway (AID 743065); also: nearly all actives have a fitted effect of over 55% in size; also: potency is read from the fitted curve at half-maximal effect
Procedure, shortened: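 GH3.TRE-Luc rat pituitary cells carrying two TR response elements driving luciferase were plated for 4 h, given compound plus 1 nM T3 (final), and incubated 23.5 h at 37 C. ONE-Glo luminescence measured reporter inhibition; CellTiter-Fluor fluorescence tracked cytotoxicity.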

[4] = molecular target: Aromatase (Homo sapiens) (UniProt P11511); experiment: qHTS assay to identify aromatase inhibitors (AID 743083); conditions: MCF-7 aro ERE, testosterone-driven ERE luciferase, 24 h; activity, negative = inhibition: at 70.3 µM (top of the series); also: nearly all actives have a fitted effect of over 55% in size; also: potency is read from the fitted curve at half-maximal effect; as to activity, negative = inhibition: % is scaled to controls: 0 for no effect and ±100 for the full control effect
[5] = qHTS assay to identify small molecule antagonists of the androgen receptor (AR) signaling pathway - cell viability counter screen (AID 743033; also: potency is read from the fitted curve at half-maximal effect; nearly all actives have a fitted effect of over 45% in size); conditions: AR-bla HEK293 viability, CellTiter-Glo luminescence, 16 h; activity change, negative = cytotoxicity: at 58.5 µM (top of the series) unless noted
[6] = tested on: thyroid hormone receptor (rat, GH3 cells); experiment: qHTS assay to identify small molecule agonists of the thyroid receptor (TR) signaling pathway (AID 743066; calls by dose curve; also: % is scaled to controls: 0 for no effect and ±100 for the full control effect); conditions: GH3.TRE-Luc cells, TR agonist luciferase, 24 h; activation: at 83.9 µM (top of the series) unless noted
[7] = molecular target: Estrogen receptor (Homo sapiens) (UniProt P03372); experiment: qHTS assay to identify small molecule antagonists of the estrogen receptor alpha (ER-alpha) signaling pathway (AID 743069; active = well fitted curve in the direction sought with a large enough effect in the signal ratio in the repeat runs, not every such curve was filed as active; inconclusive = weak or mixed curves, or effect the other way; inactive = no such curve, though single readings can be large or run the other way; the % refers to the signal ratio; also: potency is read from the fitted curve at half-maximal effect); conditions: HEK293 ER-alpha-UAS-bla, beta-lactamase ratio, antagonist mode; activity, negative = inhibition: at 69.4 µM (top of the series) unless noted
Procedure, shortened: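 Estradiol-stimulated ER-alpha-UAS-bla HEK293 cells, 18 hr compound exposure at 37C. LiveBLAzer B/G substrate, 2 hr RT, fluorescence read.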

[8] = molecular target: Estrogen receptor (Homo sapiens) (UniProt P03372); experiment: qHTS assay to identify small molecule agonists of the estrogen receptor alpha (ER-alpha) signaling pathway (AID 743075; calls by dose curve; also: potency is read from the fitted curve at half-maximal effect)
[9] = molecular target: Estrogen receptor (Homo sapiens) (UniProt P03372); experiment: qHTS assay to identify small molecule agonists of the estrogen receptor alpha (ER-alpha) signaling pathway using the BG1 cell line (AID 743079); conditions: BG1Luc4E2 cells, ERE-luciferase agonist, 22 h; activation: at 70.3 µM (top of the series) unless noted; also: nearly all actives have a fitted effect of over 20% in size; also: potency is read from the fitted curve at half-maximal effect
[10] = qHTS assay to identify small molecule antagonists of the estrogen receptor alpha (ER-alpha) signaling pathway using the BG1 cell line (AID 743080; calls by dose curve;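 also: BG1 cells stimulated with 17beta-estradiol alongside compound; nearly all actives have a fitted effect of over 25% in size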; also: potency is read from the fitted curve at half-maximal effect); conditions: BG1Luc4E2 ERE-luciferase antagonist mode, luminescence; activity change, negative = inhibition: at 70.3 µM (top of the series) unless noted
Procedure, shortened: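 Luminescence from a 4×ERE-luciferase reporter in BG1-Luc-4E2 cells served as read-out. Cells, pre-cultured 5 days in stripped-serum phenol-red-free medium, were exposed to compound with 17beta-estradiol co-stimulation for 21.5 h at 37 C.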

[11] = molecular target: Androgen receptor (Homo sapiens) (UniProt P10275); experiment: qHTS assay to identify small molecule agonists of the androgen receptor (AR) signaling pathway (AID 743036; active = well fitted activation curve with a large enough effect in the signal ratio in the repeat runs, with a control signal flat, not every such curve was filed as active; inconclusive = weak or mixed curves, or effect the other way; inactive = no such curve, though single readings can be large or run the other way; the % refers to the signal ratio; also: potency is read from the fitted curve at half-maximal effect; as to activation: % is scaled to controls: 0 for no effect and ±100 for the full control effect); conditions: HEK293 AR-UAS-bla GripTite, beta-lactamase FRET ratio, 16 h; activation: at 62.4 µM (top of the series) unless noted
Procedure, shortened: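 HEK293 cells stably carrying a UAS-driven beta-lactamase reporter (GeneBLAzer AR-UAS-bla-GripTite) were plated at 2,000 cells/well, rested 4 h at 37C, then exposed to compounds in DMSO for 16 h. LiveBLAzer B/G FRET substrate was added for 2 h at room temperature; fluorescence read.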

[12] = qHTS assay to identify small molecule antagonists of the androgen receptor (AR) signaling pathway using the MDA cell line - cell viability counter screen (AID 743041; also: potency is read from the fitted curve at half-maximal effect; nearly all actives have a fitted effect of over 45% in size); conditions: MDA-kb2 viability, CellTiter-Fluor, 16 h, cells co-treated with R1881 androgen agonist; viability change, negative = cytotoxic: at 70.3 µM (top of the series) unless noted
Procedure, shortened: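 Viability counter screen run alongside the AR antagonist reporter: cells seeded 5 h before compound, R1881 added, 16 h incubation at 37C without CO2, fluorescent CellTiter-Fluor signal quantified.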

[13] = qHTS assay to identify small molecule antagonists of the estrogen receptor alpha (ER-alpha) signaling pathway - cell viability counter screen (AID 743074; calls by dose curve;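 also: HEK293 cells carrying ER-alpha-UAS-bla reporter stimulated with 17beta-estradiol; nearly all actives have a fitted effect of over 45% in size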; also: potency is read from the fitted curve at half-maximal effect)
[14] = molecular target: Androgen receptor (Homo sapiens) (UniProt P10275); experiment: qHTS assay to identify small molecule antagonists of the androgen receptor (AR) signaling pathway (AID 743035; active = well fitted inhibition curve with a large enough effect in the signal ratio in the repeat runs, not every such curve was filed as active; inconclusive = weak or mixed curves, or effect the other way; inactive = no such curve, though single readings can be large or run the other way; the % refers to the signal ratio; also: % is scaled to controls: 0 for no effect and ±100 for the full control effect); conditions: HEK293 AR-UAS-bla, R1881-stimulated, beta-lactamase FRET, 16 h; activity change, negative = inhibition: at 58.5 µM (top of the series) unless noted
Procedure, shortened: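 Beta-lactamase FRET read (2 h RT incubation with LiveBLAzer B/G) following 16 h of compound plus R1881 treatment of AR-UAS-bla HEK293 cells, which had been pre-incubated 4 h at 37C.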

[15] = qHTS assay to identify small molecule antagonists of the estrogen receptor alpha (ER-alpha) signaling pathway using the BG1 cell line - cell viability counter screen (AID 743081); conditions: BG1Luc4E2 viability, CellTiter-Fluor, 22 h; activity change, negative = cytotoxicity: at 70.3 µM (top of the series) unless noted;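 also: compound given together with 17beta-estradiol as the ER stimulus; potency is read from the fitted curve at half-maximal effect; nearly all actives have a fitted effect of over 45% in size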
[16] = qHTS assay for identifying genotoxic compounds that show differential cytotoxicity against isogenic chicken DT40 cell lines with known DNA damage response pathways - Rev3 mutant cell line (AID 743014); conditions: chicken DT40 Rev3-/- viability, CellTiter-Glo, 40 h; activity, negative = cytotoxicity: at 68.4 µM (top of the series); also: potency is read from the fitted curve at half-maximal effect; nearly all actives have a fitted effect of over 55% in size
[17] = qHTS assay for identifying genotoxic compounds that show differential cytotoxicity against isogenic chicken DT40 cell lines with known DNA damage response pathways - Rad54/Ku70 mutant cell line (AID 743015); conditions: DT40 Rad54/Ku70 mutant viability, CellTiter-Glo, 40 h; activity change, negative = cytotoxicity: at 66.8 µM (top of the series); also: potency is read from the fitted curve at half-maximal effect; nearly all actives have a fitted effect of over 60% in size
Tags tell the direction and shape of the fitted curve or compound fluorescence and quenching.

Sequence of UniProt P10275 (P10275 whole entry, looked up): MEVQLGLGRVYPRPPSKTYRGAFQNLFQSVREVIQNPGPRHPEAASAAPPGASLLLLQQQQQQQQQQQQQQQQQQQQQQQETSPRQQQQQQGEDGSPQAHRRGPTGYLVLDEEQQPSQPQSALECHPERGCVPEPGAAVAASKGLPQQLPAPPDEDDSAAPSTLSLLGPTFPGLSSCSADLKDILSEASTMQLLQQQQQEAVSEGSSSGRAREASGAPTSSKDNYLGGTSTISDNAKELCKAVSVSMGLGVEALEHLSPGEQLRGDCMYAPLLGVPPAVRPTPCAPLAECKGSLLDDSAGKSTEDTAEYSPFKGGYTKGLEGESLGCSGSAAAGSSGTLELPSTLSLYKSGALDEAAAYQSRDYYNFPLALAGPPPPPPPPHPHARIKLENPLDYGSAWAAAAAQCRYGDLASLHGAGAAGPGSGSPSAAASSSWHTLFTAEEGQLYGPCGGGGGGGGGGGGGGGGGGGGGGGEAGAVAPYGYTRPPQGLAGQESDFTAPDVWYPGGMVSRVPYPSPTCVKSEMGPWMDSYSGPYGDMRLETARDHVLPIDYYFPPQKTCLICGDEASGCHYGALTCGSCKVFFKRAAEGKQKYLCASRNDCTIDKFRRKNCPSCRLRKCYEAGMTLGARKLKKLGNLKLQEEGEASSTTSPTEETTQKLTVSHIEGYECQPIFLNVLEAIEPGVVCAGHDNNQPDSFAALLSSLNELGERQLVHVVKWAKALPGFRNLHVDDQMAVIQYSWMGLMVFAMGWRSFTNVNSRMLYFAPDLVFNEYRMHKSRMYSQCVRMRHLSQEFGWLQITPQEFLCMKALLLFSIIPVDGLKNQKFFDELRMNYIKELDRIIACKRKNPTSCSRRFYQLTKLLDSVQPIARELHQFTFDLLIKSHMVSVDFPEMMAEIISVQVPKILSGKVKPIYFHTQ
Sequence of UniProt P11511 (P11511 whole entry, looked up): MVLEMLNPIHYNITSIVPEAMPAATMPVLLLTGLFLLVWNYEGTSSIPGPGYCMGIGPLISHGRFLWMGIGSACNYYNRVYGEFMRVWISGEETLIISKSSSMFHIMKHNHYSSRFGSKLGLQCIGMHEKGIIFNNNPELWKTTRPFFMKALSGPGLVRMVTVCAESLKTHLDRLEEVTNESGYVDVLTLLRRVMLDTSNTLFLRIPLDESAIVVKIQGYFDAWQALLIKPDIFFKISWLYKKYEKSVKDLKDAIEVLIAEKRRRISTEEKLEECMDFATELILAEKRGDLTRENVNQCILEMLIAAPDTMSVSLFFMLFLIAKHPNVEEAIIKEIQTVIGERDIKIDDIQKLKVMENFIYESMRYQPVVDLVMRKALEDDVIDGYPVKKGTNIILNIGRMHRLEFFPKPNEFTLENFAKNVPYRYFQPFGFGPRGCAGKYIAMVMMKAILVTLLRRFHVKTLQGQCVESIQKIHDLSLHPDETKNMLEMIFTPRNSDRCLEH
Sequence of UniProt P03372 (P03372 whole entry, looked up): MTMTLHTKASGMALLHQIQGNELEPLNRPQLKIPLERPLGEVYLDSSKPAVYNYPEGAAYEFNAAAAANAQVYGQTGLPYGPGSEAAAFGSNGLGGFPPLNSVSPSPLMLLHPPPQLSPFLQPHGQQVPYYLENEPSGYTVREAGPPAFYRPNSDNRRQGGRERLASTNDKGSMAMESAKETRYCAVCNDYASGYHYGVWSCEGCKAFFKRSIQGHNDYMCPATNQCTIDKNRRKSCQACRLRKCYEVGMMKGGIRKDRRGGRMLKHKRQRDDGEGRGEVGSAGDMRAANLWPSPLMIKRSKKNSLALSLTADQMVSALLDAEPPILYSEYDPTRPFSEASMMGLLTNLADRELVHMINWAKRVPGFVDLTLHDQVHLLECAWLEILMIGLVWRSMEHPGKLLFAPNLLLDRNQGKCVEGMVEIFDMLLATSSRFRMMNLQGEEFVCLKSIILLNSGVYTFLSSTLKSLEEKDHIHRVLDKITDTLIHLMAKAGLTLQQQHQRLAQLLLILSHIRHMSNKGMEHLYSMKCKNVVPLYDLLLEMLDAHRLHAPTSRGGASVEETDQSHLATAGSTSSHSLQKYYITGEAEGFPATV

In the case of `C[C@@H]1C[C@H]2[C@@H]3CCC4=CC(=O)C=C[C@]4(C)[C@@]3(F)[C@@H](O)C[C@]2(C)[C@@]1(O)C(=O)CO`, the Potency [1] is reported as inconclusive: 0.22 µM [rising, full curve, poor fit], the Potency [2] is reported as inconclusive: 27.7 µM [cytotoxic, partial curve, poor fit] and the Potency [3] is reported as inconclusive: 31.1 µM [inhibitor]. The Potency [4] was “inactive”.

For `O=C(N/N=C/c1ccccc1O)c1ccncc1`, the Potency [1] was active: 4.22 µM, the Potency [5] was inconclusive: 1.9 µM [cytotoxic, full curve] and the Potency [2] was inconclusive: 33.5 µM [cytotoxic, partial curve, poor fit]. The activation [6] was inconclusive: -8.16% [phenotype inactive], the Potency [7] was inconclusive: 9.52 µM [inhibitor, partial curve, poor fit] and the Potency [8] was inconclusive: 6.74 µM [falling, full curve]. For the same compound, the Potency [9] was inconclusive: 8.41 µM [inhibitor, full curve], the Potency [10] was active: 18.8 µM and the Potency [4] was active: 5.96 µM.

With `COc1cc2c(c(OC)c1OC)-c1ccc(OC)c(=O)cc1[C@@H](NC(C)=O)CC2` the Potency [1] was active: 66.8 nM and active: 13.5 nM and active: 7.7 nM, the Potency [11] was inconclusive: 67.4 nM [falling, partial curve, poor fit] and inconclusive: 10.8 nM [falling, partial curve, poor fit] and the activation [11] was inconclusive: 38.7%. For the same compound, the Potency [12] was inconclusive: 0.495 µM [cytotoxic, partial curve, poor fit], the Potency [3] was active: 531 nM and active: 135 nM and active: 96.9 nM and the Potency [7] was inconclusive: 75.6 nM [inhibitor, partial curve, poor fit] and active: 15.3 nM [inhibitor]. The Potency [13] was inconclusive: 95.2 nM [rising, full curve] and inconclusive: 87.1 nM [rising, full curve], the Potency [9] was inconclusive: 0.76 µM [inhibitor, partial curve] and the Potency [10] was active: 119 nM and active: 42.7 nM and active: 86.3 nM.

With `Cc1cn([C@H]2C[C@H](F)[C@@H](CO)O2)c(=O)[nH]c1=O` the Potency [1] was inconclusive: 33.5 µM [cytotoxic, partial curve, poor fit], the Potency [14] was “inactive” and the Potency [3] was “inactive”. For the same compound, the Potency [13] was “inactive”, the Potency [10] was “inactive” and the Potency [4] was “inactive”.

With `CCCCCCCCOc1ccc(C(=O)c2ccccc2)c(O)c1` the Potency [1] was inconclusive: 68.6 µM [cytotoxic, single point], the Potency [5] was inconclusive: 23.9 µM [cytotoxic, partial curve, poor fit] and inconclusive: 54.9 µM [cytotoxic, single point] and the Potency [13] was inconclusive: 22.1 µM [cytotoxic, single point].

With `CCn1c2ccccc2c2cc([N+](=O)[O-])ccc21` the Potency [1] was active: 48.6 µM, the Potency [7] was “inactive” and the Potency [9] was “inactive”.

With `CCCc1c(OCCCCc2nn[nH]n2)ccc(C(C)=O)c1O` the Potency [1] was active: 29.8 µM and inconclusive: 77 µM [cytotoxic, single point], the Potency [3] was active: 23.7 µM and active: 61.1 µM and the Potency [7] was inconclusive: 1.9 µM [fluorescent, full curve] and inconclusive: 6.16 µM [fluorescent, full curve, poor fit].

With `CNc1c2c(nn1C)CCCC2` the Potency [1] was inconclusive: 29.8 µM [rising, partial curve, poor fit], the Potency [13] was “inactive” and the Potency [10] was “inactive”.

With `C[C@]12CCC(=O)C=C1CC[C@@H]1[C@@H]2[C@@H](O)C[C@@]2(C)[C@H]1CC[C@]2(O)C(=O)COC(=O)CCC(=O)O` the Potency [1] was active: 26.6 µM, the Potency [7] was inconclusive: 1.34 µM [activator, partial curve] and the Potency [15] was inconclusive: 1.33 µM [rising, full curve, poor fit].

For `O=C1O[C@@H]2[C@@H](O)[C@H](O)O[C@@H]2[C@H]1O`, the Potency [1] was “inactive”, the Potency [2] was “inactive” and the Potency [10] was “inactive”.

For `O=C1c2ccccc2C(=O)c2cc(S(=O)(=O)O)ccc21`, the Potency [16] was inconclusive: 3.07 µM [cytotoxic, partial curve, poor fit].

For `CCC(CC)C(=O)O`, the Potency [1] was inconclusive: 27.3 µM and the Potency [7] was inconclusive: 27.5 µM [activator, partial curve, poor fit].

With `COc1ccccc1OCC(O)CN1CCN(CC(=O)Nc2c(C)cccc2C)CC1` (stereo not drawn) the Potency [1] was “inactive”, the Potency [2] was “inactive” and the Potency [13] was “inactive”.

In the case of `CC(=O)CC(C)C`, the Potency [1] is reported as “inactive”, the Potency [2] is reported as “inactive” and the Potency [15] is reported as inconclusive: 68.6 µM [rising, single point].

In the case of `Cc1ccc(O)c(N)c1`, the Potency [1] is reported as active: 54.5 µM, the Potency [7] is reported as inconclusive: 43.7 µM [activator, partial curve] and the Potency [9] is reported as inconclusive: 15.4 µM [inhibitor, partial curve, poor fit]. For the same compound, the activity change, negative = inhibition [10] was inconclusive: -26.4% and the Potency [4] was inconclusive: 68.7 µM [inhibitor, single point].

In the case of `NC1CCCCC1N` (stereo not drawn), the Potency [16] is reported as inconclusive: 54.5 µM [cytotoxic, single point].

For `O=C1c2ccccc2C(=O)N1CCl`, the Potency [16] was inconclusive: 68.2 µM [cytotoxic, single point] and the Potency [17] was inconclusive: 76.5 µM [cytotoxic, partial curve, poor fit].
